Data as given in the supplement of paper PMC8674133.
Recombinant human monoclonal antibodies (heavy:light variable regions). ELISA EC50 on the named antigen, from 10 µg/ml down; IC50 / IC90 against spike pseudovirus on 293T-ACE2 cells, 48 h; lower = stronger. Calls: IC50 above 1,000 ng/ml = non-neutralizing; EC50 above 2,000 ng/ml = non-binder. The source prints 1000 for neutralization that was not reached; it is given as >1000 ng/ml. A few antibodies were first reported in earlier work of the same group.

Columns and labels:
[1] = biological target: SARS-CoV-2 Wuhan-Hu-1 spike pseudovirus; test: pseudovirus neutralization IC50; higher = weaker neutralization
Experimental: (§1)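 Single-round luciferase reporter pseudovirus mixed with antibody dilutions and put on 293T-ACE2 cells for 48 h; signal relative to no-antibody wells, four-parameter fit.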

[2] = biological target: SARS-CoV-2 Wuhan-Hu-1 spike pseudovirus; test: pseudovirus neutralization IC90; higher = weaker neutralization
Experimental: as §1

[3] = biological target: SARS-CoV-2 Wuhan-Hu-1 spike receptor-binding domain; test: ELISA binding EC50; higher = weaker binding; ELISA of recombinant human antibody on coated antigen, from 10 µg/ml in fourfold dilutions; four-parameter fit.

Binder | pseudovirus neutralization IC50 [1] [µg/mL] | pseudovirus neutralization IC90 [2] [µg/mL] | ELISA binding EC50 [3] [µg/mL]
C1211 (protein) chain 1: QVQLVQSGAEVKKPGSSVKVSCKASGGTFSSYGISWVRQAPGQGLEWMGRIIPMFGIVNYAQRFQGRVTITADKSTSTVYMELSSLRSEDTAVYYCARDQWESDYYDNSDYYYVDYWGQGTLVTVSS chain 2: QSVLTQPPSVSGAPGQRVTISCTGSSSNIGAGYDVHWYQQLPGTAPKLLIYDNSNRPSGVPDRFSGSKSGTSASLAITGLQAEDEADYHCQSYDRSLSDVVFGGGTKLTVL | 0.0954 | > 1 | 0.0028
C1213 (protein) chain 1: QVQLVQSGAEVKKPGSSVKVSCKASGGTFSSYAINWVRQAPGQGLEWMGGILPALHIANSTQKFQGRVTITADKSTTTAYMELSSLRSEDTAVYYCARGSFRDPAMWGPMPEKFQHWGQGTLVTVSS chain 2: DIQMTQSPSSLSASVGDRVTITCRASQSISSYLNWYQQKPGKAPKLLIHAASNLQSGVPPRFSGSGSGTDFTLTISTLQPEDFATYYCQQSDSIPGTFGQGTKLEIK | 0.0258 | 0.103 | 0.00205
C1208 (protein) chain 1: QVQLQESGPGLVKPSETLSLTCAVSGYSISSDYFWGWIRQPPGKGLEWIGTIYRSGNTYYSPSLKSRVTVSVDTSKNQFSLKLTSVTAADTAVYYCASNKWLRGNFDYWGQGNLVTVSS chain 2: NFMLTQPHSVSESPGKTVTISCTRSGDNIASNYVQWYQQRPGSSPTTVIYEDNQRPSGVPDRFSGSIDSSSNSASLTISGLKTEDEADYYCQSYDVSNFWVFGGGTKLTVL | 0.113 | 0.798 | 0.00374
C1214 (protein) chain 1: EVQLLESGGGLVQPGGSLRLSCAASGFTFSNYAMSWVRQAPGKGLEWVSTISGNGGITHYADSAKGRFTISRENSKNTLYLQMSSLRAEDTAVYYCAKDIGSTIAVEIMEYWGQGTLVTVSS chain 2: DIQMTQSPSSLSASVGDRVTITCRASQSISRYLNWYQQIPGKAPKLLIYVASSLQSGVPSRFSGSGSGTDFTLTISSLQPEDFATYYCQQSYTTPYTFGQGTKLEIK | > 1 | > 1 | 0.00243
C1216 (protein) chain 1: QVQLQESGPGLVKPSQTLSLTCTVSGGSIRSDDYYWSWIRQPPGKGLEWIGYISYSGSTYKNPSLRSRVTISLDTSKNQFSLKLSSVTAADTAVYYCAREVLTTVGGGNWFDPWGQGTLVTVSS chain 2: SYELTQPPSVSVAPGKTARITCGGNEIGSKSVHWYQQKPGQAPVLVIYYDSDRPSGIPERFSGSNSGNTATLTISRVEAGDEADYYCQVWDSTSDHHPYVFGTGTKVTVL | 0.536 | > 1 | 0.00264
C2432 (protein) chain 1: EVQLVESGGGLVQPGGSLRLSCAASGFIFSDHDMHWVRQVPGKGLEWVSVIGSAGDTYYADSVKGRLIISRENVKNSLYLQMNNLRAGDTAIYYCVRGVDFRYCSGGRCFSHYYFDYWGQGTLVTVSS chain 2: DIQLTQSPSSLSASVGDRVIITCRASQTINRYLNWYQQKPGKAPKLLIYAASNLQTGVPSRFSGSGSGTDFTLTISSLQPEDFATYYCQQSYSTLEYTFGQGTKLEIK | > 1 | > 1 | 0.00302
C1217 (protein) chain 1: EVQLVESGGGLVQPGGSLRLSCAASGFTVSRSYINWVRQAPGKGLEWVSVIYSGGSTHYADSVKGRFIISRDNSKNTVYLQLNSLRAEDTAVYYCARDITIFGVGNYGMDVWGLGTTVTVSS chain 2: DIQLTQSPSFLSASVGDRVTITCRASQGISNFLAWYQQKPGKAPKLLIYAASTLQSGVPSRFSGSGSGTEFTLTISSLQPEDFATYYCQQLNSYRPWTFGQGTKVEIK | > 1 | > 1 | 0.00328
C1218 (protein) chain 1: EVQLVESGGGLVQPGGSLRLSCAASGFTFSTYDMHWVRQVTGKGLEWVSAIGTSGDTYYPDSVKGRFTISRENAKNSVYLQMKSLRAEDTAVYYCVRATFDSRNYHNWFDPWGQGTLVTVSS chain 2: DIQMTQSPSSLSASVGDRVTITCRASLSISNYLNWYQQRPGKAPKLLIYAASSLQSGVPSRFSGSGSGTDFTLTINSLQPEDFATYYCQQGYGTPPWTFGQGTKVEIK | > 1 | > 1 | 0.00338
C1221 (protein) chain 1: QVQLVQSGAEVKKPGASVKVSCKASGYTFTSYYIHWVRQAPGQGLEWMGIINPGGGSTSYAQKFQGRLTMTRDTSTSTVYMELSSLRSEDTAVYYCGRFYDSTGVFDYWGQGTLVTVSS chain 2: DIQMTQSPSSLSASVGDRVTITCRASQGIRNDLGWYQQKPGKAPKCLIYDASSLQSGVPSRFSGSGSGTEFTLTISSLQPEDFATYYCLQHNSYPFLTFGGGTKVEIK | 0.00957 | 0.0603 | 0.0017
C1223 (protein) chain 1: QVQLQESGPGLVKPSETLSLTCAVSGGSISGYYWNWIRQPPGKGLEWIGYIYYTGSTNYNPSLKSRVTISLDTSKNRFSLKLSSVTAADTAVYYCARLEWLQGRFDYWGQGTLVTVSS chain 2: NFMLTQPHSVSESPGKTVIISCTRSSGSIANNYVQWYQQRPGSSPITVIYEDNQRPSGVPDRFSGSIDSSSNSASLTISGLKTEDEADYYCQSYDTSNHVFGGGTKLTVL | 0.081 | > 1 | 0.00143
C1224 (protein) chain 1: QLQLQESGPGLVKPSETLSLTCAVSGDSISSNSFFWGWIRQPPGKGLEWIATISYSGSTYYNPSLKSRVTISVDTSNNQFSLRLSSVTAADTAVYYCARLRWLRGKFDPWGQGTLVTVSS chain 2: NFMLTQPHSVSGSPGKTVTISCTGSSGSIASNYVQWYQKRPGSSPTTVIYEDNQRPSGVPDRFSGSIDSSSNSASLTISGLKTEDEADYYCQSYDSSIHVVFGGGTKLTVL | 0.21 | > 1 | 0.0016
C1227 (protein) chain 1: EVQLVESGGGLVQPGGSLRLSCAASGFTFSSYDMHWVRQSTVKGLEWVSVIGTADDTYYPDSVKGRFTISRENAKNSLYLQMNSLRAEDTAVYYCARGVFDSSGFYSSFDYWGQGTLVTVSS chain 2: DIQMTQSPSSLSASIGDRVTITCRASQSISRYLNWYQQKPGKAPKLLIFAASSLQSGVPSRFSGSGSGTDFTLTISGLQPEDFATYYCQQSYITPGYTFGQGTKLEIK | 0.979 | > 1 | 0.0014
C1228 (protein) chain 1: QVQLVESGGGLVKPGGSLRLSCAASGFTFSDYHMSWIRQAPGKGLECISYISRSESTIYDADSVKGRFTSSRDNAKNSLYLQMNSLRAEDTAVYYCAREGYSSESFDYWGQGTLVTVSS chain 2: SYELTQPPSVSVAPGKTARITCGANDIGSKSVHWYQQKPGQAPVLVVYDDSDRPSGIPDRFSGSNSGNTATLTISRVEAGDEADYYCHVWDGSSEHLVLFGGGTKLTVL | > 1 | > 1 | > 10
C1231 (protein) chain 1: QVQLVESGGGVVQPGKSLRLSCAASGFTFSNYDMHWVRQAPGKGLEWVAIISSDGSSKFYADSMKGRFSISRDNSRNTLYLQMNSLRPEDTAVYYCARDQDVDTSMVPIFAYWGQGTLVTVSS chain 2: DIQMTQSPSSLSASVGDRVTITCRASQSISGYLNWYQQKPGKAPKLLIYGASSLQSGVPSRFSGSGSGTDFSLTISSLQPEDFATYYCQQSYSTLALTFGGGTKVEIK | 0.302 | > 1 | 0.00139
C1232 (protein) chain 1: EVQLVETGGGLIQPGGSLRLSCAVSGFTVSRNYMSWVRQAPGKGLEWVSGIFSGGSTFYADSVQGRFTISRDSSKNTLFLQMDSLRAEDTAVYYCARDLEMAGGFDSWGQGTLVTVSS chain 2: DIQLTQSPSFLSASVGDRVTITCRASQGISSYLAWYQQKPGKAPKLLIYAASTLQSGVPSRFSGSGSGTEFTLTISSLQPEDFATYYCQHLNSYPSITFGQGTRLEIK | 0.00826 | 0.0858 | 0.00106
C1234 (protein) chain 1: EVQLVESGGGLVQPGGSLRLSCEASGVIVSSNYMNWVRQAPGKGLEWVSLIYSGGSTYYADSVKGRFTISRDNSKNTLYLQMNSLRAEDTAVYYCARDLQQAGGFDYWGQGILVTVSS chain 2: DIQMTQSPSSLSASVGDRVTITCQASQDIRNYLNWYQQKPGKAPKLLIYNASNLGRGVPSRFSGSGSGTDFTFTISSLQPEDIATYYCQQYDNLPITFGQGTRLEIK | 0.0206 | 0.0483 | 0.000863
